Measurements from PubChem BioAssay AID588342 (National Center for Advancing Translational Sciences (NCATS), 2011).
Screen size: about 360,000 compounds; about 25,000 (6.9%) were called active. The inconclusive results got no clear call from the source; some entries with a clear call stand among them for comparison. Calls come from the whole dose curve; as a rule, active = well fitted inhibition curve with a large enough effect; inconclusive = small, poorly fitted or top-dose-only effect; inactive = flat fitted curve, though single readings scatter. Where the call is inconclusive, the potency comes from a doubtful curve fit.

target: Luciferin 4-monooxygenase (Photinus pyralis) (UniProt P08659); assay: qHTS profiling assay for firefly luciferase inhibitor/activator using purifed enzyme and Km concentrations of substrates (counterscreen for miR-21 project); details: purified FLuc, luminescence inhibition; activity change, negative = inhibition: at 57.5 µM (top of the series); note: nearly all actives have a fitted effect of over 55% in size;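 for activity change, negative = inhibition: plate controls were vehicle for no effect and reference inhibitor for full effect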
How it was run: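 Purified P. pyralis luciferase (10nM final) with 10uM D-luciferin and 10uM ATP (Km levels) in 50mM Tris acetate pH 7.5, 10mM Mg acetate, 0.01% Tween-20, 0.05% BSA; qHTS 6-point titration, ~60 µM downward; luminescence read.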
Potency is the fitted concentration of half-maximal effect; tags give direction and shape of the fitted curve.

Sequence of UniProt P08659 (P08659 whole entry, looked up): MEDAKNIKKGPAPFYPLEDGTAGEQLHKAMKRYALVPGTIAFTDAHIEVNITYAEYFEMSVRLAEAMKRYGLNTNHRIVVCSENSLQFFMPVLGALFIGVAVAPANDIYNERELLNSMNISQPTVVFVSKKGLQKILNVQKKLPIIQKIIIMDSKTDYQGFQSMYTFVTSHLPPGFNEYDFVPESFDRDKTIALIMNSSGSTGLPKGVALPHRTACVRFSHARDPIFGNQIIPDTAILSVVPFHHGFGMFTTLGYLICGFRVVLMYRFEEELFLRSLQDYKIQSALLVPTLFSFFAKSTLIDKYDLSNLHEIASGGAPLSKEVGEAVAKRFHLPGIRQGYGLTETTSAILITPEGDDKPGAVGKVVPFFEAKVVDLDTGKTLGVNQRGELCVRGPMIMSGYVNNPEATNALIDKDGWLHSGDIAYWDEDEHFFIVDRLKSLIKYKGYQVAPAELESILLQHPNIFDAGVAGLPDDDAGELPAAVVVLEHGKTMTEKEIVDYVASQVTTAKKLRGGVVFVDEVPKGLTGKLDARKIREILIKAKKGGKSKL

Structure (SMILES)	Potency	activity change, negative = inhibition
CCc1ccc(-n2nc3cc(C)c(NC(=O)c4cccc5ccccc45)cc3n2)cc1	inconclusive: 8.49 µM [inhibitor, partial curve, poor fit]	
CCN(CC)C(=O)C[n+]1cccc(C(N)=O)c1		inactive: 3.86%
O=C(NCc1ccco1)c1ccc(COc2ccccc2Cl)cc1	inconclusive: 37.9 µM [inhibitor, single point]	
CC(=O)NC1C(=O)N(CCN2CCOCC2)c2ccc(F)cc21 (stereo unspecified)	inconclusive: 30.1 µM [inhibitor, single point]	
O=c1cc(-c2ccccc2)n2c(SCc3ccccc3)nnc2[nH]1	inconclusive: 6.75 µM [inhibitor, partial curve]	
Cc1cccc(OCC(=O)Nc2cc(C)on2)c1	inconclusive: 37.9 µM [inhibitor, partial curve, poor fit]	
COc1cc(/C=C2\SC(=S)N(CC(=O)O)C2=O)ccc1OC(=O)c1ccco1	active: 7.57 µM	
O=[N+]([O-])c1cccc(-c2noc(COc3ccccc3)n2)c1	inconclusive: 37.9 µM [inhibitor, partial curve, poor fit]	
CC(=O)N1N=C(c2ccc3ccccc3c2)OC1(C)C	inconclusive: 37.9 µM [inhibitor, single point]	
Cc1cc(C)nc(N/N=C/c2sccc2C)n1	inconclusive: 26.9 µM [inhibitor, partial curve]	
CCOC(=O)C1=C2c3ccc4ccccc4c3CC(C)(C)N2C(=O)C1=O		inactive: -17.6%
O=C(COc1ccccc1F)NNC(=O)c1ccc(N2CCCCC2)c([N+](=O)[O-])c1	inconclusive: 26.9 µM [inhibitor, partial curve, poor fit]	
C=CCN1C(=O)N/C(=C/c2ccccc2OCC(=O)Nc2ccc(F)cc2)C1=O	inconclusive: 19 µM [inhibitor, single point]	
CCOC(=S)SCC(=O)N1CCc2cc(OC)ccc2C1C1C(=O)CCCC1=O (stereo unspecified)		inactive: 5.99%
Clc1ccc(/C(Cc2nc3ccccc3[nH]2)=N\Nc2ccccc2)cc1	active: 13.5 µM	
COc1cc(Cl)c(C)cc1NC(=O)CSc1nnc(-c2ccco2)n1CC(C)C		inactive: -17.6%
CCOC(=O)C1CCCN(C(=O)c2nn(-c3ccc(OC)cc3)c(=O)c3c2c2ccccc2n3C)C1 (stereo unspecified)		inactive: -0.435%
Nc1nc(Nc2ccccc2F)sc1C(=O)c1ccc(Cl)cc1	active: 15.1 µM	
C=CCn1c(Oc2ccccc2)nc2c1c(=O)n(C)c(=O)n2C	inconclusive: 0.0085 µM [inhibitor, partial curve, poor fit]	
CCc1cccc(NC(=O)C2CCN(C(=O)c3cnn(-c4ccccc4)c3-n3cccc3)CC2)c1	inconclusive: 9.53 µM [inhibitor, partial curve, poor fit]	
CCOC(=O)c1c(S(=O)(=O)N2CCCC(C(=O)NCc3ccc(Cl)cc3)C2)c(C)n(C)c1C (stereo unspecified)		inactive: -14.4%
Fc1cccc(-c2c(-c3ccccc3)ncc3cc(F)ccc23)c1	inconclusive: 7.57 µM [inhibitor, single point]	
Cc1cc(=O)n2nc(N3CCCC(C(=O)Nc4ccc(C)c(C)c4)C3)sc2n1 (stereo unspecified)	inconclusive: 13.5 µM [inhibitor, partial curve]	
CSc1ccc(C2NC(=O)c3c(sc4c3CCN(C)C4)N2)cc1 (stereo unspecified)	inconclusive: 37.9 µM [inhibitor, single point]	

Structure (SMILES)	Potency	activity change, negative = inhibition
NNC(=O)Cn1c(COc2ccc(Cl)cc2)nc2ccccc21	active: 12 µM	
O=C(O)c1cccc(Nc2nc3ccccc3nc2NS(=O)(=O)c2cccs2)c1	inconclusive: 26.9 µM [inhibitor, partial curve, poor fit]	
FC(F)(F)c1ccc2c(c1)NCC1CCCN21 (stereo unspecified)	inconclusive: 30.1 µM [inhibitor, partial curve, poor fit]	
COc1ccccc1/C=C1\CCCC2=C1Nc1nnnn1C2c1ccccc1OC (stereo unspecified)		inactive: -17.1%
COc1ccccc1N1CCN(S(=O)(=O)c2cc(Br)cnc2N)CC1		inactive: 0.612%
CNC(=O)C12CC3CC(CC(Cl)(C3)C1)C2		inactive: -0.845%
Cc1cccc(Cn2c(CNS(=O)(=O)c3ccc4c(c3)CCCC4)nc3cccnc32)c1	inconclusive: 21.3 µM [inhibitor, partial curve, poor fit]	
Cc1ccc(-n2ncc3c(=O)n(CC(=O)NCC4CCCO4)cnc32)cc1 (stereo unspecified)	inconclusive: 19 µM [inhibitor, partial curve]	
O=C(COc1ccccc1)Nc1nnc(-c2ccc3c(c2)CCCC3)o1	inconclusive: 37.9 µM [inhibitor, single point]	
O=C1c2ccccc2C(=O)c2c1cccc2N1CCOCC1	inconclusive: 23.9 µM [inhibitor, single point]	
Cc1c(Cl)cccc1-c1ccc(C(=O)Nc2ccc(F)cc2)o1	inconclusive: 9.53 µM [inhibitor, partial curve]	
O=C1CC(c2ccccc2)CC(O)=C1C=Nc1ccc(O)cc1 (stereo unspecified)	inconclusive: 23.9 µM [inhibitor, partial curve, poor fit]	
Cc1cccc(/C=C(\c2nc3ccccc3[nH]2)S(=O)(=O)c2ccccc2)c1		inactive: 2.85%
CCOc1ccc(/C=C2\SC(=S)N(C(C(=O)O)c3ccccc3)C2=O)cc1OC (stereo unspecified)	active: 19 µM	
COc1ccc(C(=O)N/N=C/c2sc3ccccc3c2O)cc1	active: 13.5 µM	
CCOc1ccc(-c2cccc(NS(=O)(=O)c3c(C)cc(C)cc3C)c2)nn1	inconclusive: 37.9 µM [inhibitor, partial curve, poor fit]	
CN(C)c1cccc(C(=O)NCCCn2ccc3ccccc32)c1	inconclusive: 21.3 µM [inhibitor, partial curve, poor fit]	
CCN(C(=O)C1CCN(S(=O)(=O)c2ccc3c(c2)CCCN3C(C)=O)CC1)c1cccc(C)c1		inactive: -2.77%
CCOc1ccc(-c2nnc(-c3cccs3)o2)cc1OCC	inconclusive: 21.3 µM [inhibitor, partial curve]	
Cc1ccc(CNC(=O)c2cc3cc(Br)ccc3oc2=N)cc1		inactive: 4.32%
CCOc1ccc2nc(NC(=O)C3CCN(c4cnccn4)CC3)sc2c1	inconclusive: 37.9 µM [inhibitor, partial curve, poor fit]	
Cc1c(Cl)cccc1NC(=O)Cn1c(CCC(=O)O)ccc1-c1cccs1	inconclusive: 23.9 µM [inhibitor, partial curve, poor fit]	
Cc1cc(Br)ccc1OCc1nc(-c2cccnc2)no1	inconclusive: 3.79 µM [inhibitor, full curve]	
O=C(Nc1cccc([N+](=O)[O-])c1)c1ccccc1	inconclusive: 23.9 µM [inhibitor, partial curve, poor fit]	

Structure (SMILES)	Potency	activity change, negative = inhibition
O=C(Cc1cccc2ccccc12)N/N=C/c1ccc(O)c([N+](=O)[O-])c1	inconclusive: 42.6 µM [inhibitor, partial curve, poor fit]	
CCOc1ccc(Cl)cc1C1=CC(=O)C[C@H](c2ccc(OC)cc2)C1		inactive: -0.457%
Cc1cc(-c2nc3ncccc3o2)ccc1NC(=O)CC(C)C	inconclusive: 23.9 µM [inhibitor, partial curve, poor fit]	
CC12CN(NC(=O)c3ccccc3F)C3(C#N)CC1CCC23C (stereo unspecified)		inactive: 1.5%
Cc1nsc2c1ccc1ccccc12	inconclusive: 26.9 µM [inhibitor, single point]	
Cc1nc2ccccc2n1S(=O)(=O)c1cc(C(=O)O)ccc1Cl		inactive: -2.32%
COc1cc(/C=N/NC(=O)c2cc(C34CC5CC(CC(C5)C3)C4)[nH]n2)ccc1O	active: 13.5 µM	
CCOC(=O)Cn1c2c(c(-c3ccccc3OC)cc1=O)CCCC2	inconclusive: 21.3 µM [inhibitor, partial curve, poor fit]	
Cc1ccc(-c2nc3ccccc3c(=O)o2)cc1	active: 4.26 µM	
COc1ccccc1NC(=S)NC1CCCCCC1	inconclusive: 37.9 µM [inhibitor, partial curve, poor fit]	
CCOc1ccccc1NC(=S)N(CCC(C)C)C1CCN(C(C)=O)CC1		inactive: -0.0626%
O=S(=O)(Nc1ccc(-c2ccc(N3CCCC3)nn2)cc1)c1ccc(Cl)cc1		inactive: -6.23%
O=CNc1ccc(S(=O)(=O)NCc2ccccc2)cc1		inactive: 5.2%
COC(=O)C(=C/C(C)=C/c1cccs1)C(=O)OC	inconclusive: 23.9 µM [inhibitor, single point]	
Cc1ccc2nc3c(cc2c1)c(NC(=O)c1ccco1)nn3CC(C)C	inconclusive: 12 µM [inhibitor, partial curve, poor fit]	
CN1C(=O)c2ccc(C(=O)Nc3ccccc3O)cc2C1=O	inconclusive: 19 µM [inhibitor, partial curve]	
c1ccc(-c2cnnc(N3CCOCC3)n2)cc1	inconclusive: 23.9 µM [inhibitor, partial curve, poor fit]	
O=C(Nc1cccc(-c2nc3ccccc3o2)c1)c1ccc(-c2ccc(Br)cc2)o1	inconclusive: 7.57 µM [inhibitor, partial curve, poor fit]	
O=C(NCCCN1CCCC1)c1ccc(CS(=O)(=O)c2c(Cl)cccc2Cl)o1		inactive: 4.81%
CCOC(=O)c1[nH]c(C)c(C(=O)Nc2ccccc2F)c1C	inconclusive: 21.3 µM [inhibitor, single point]	
Cc1cc(C)nc(NC(=O)Nc2ccc(F)cc2F)n1	inconclusive: 7.57 µM [inhibitor, full curve]	
CC1CCc2nc(NC(=O)CN3CCOCC3)sc2C1 (stereo unspecified)	inconclusive: 26.9 µM [inhibitor, single point]	
COC(=O)c1cc2c(C)c(C)c3ccccn3c-2c1C(=O)OC	inconclusive: 4.78 µM [inhibitor, partial curve, poor fit]	
